Consider 167 variants from the RNAGym collection of RNA variant scans (doi:10.1093/nar/gkz1192).

Read counts are not given, so values of variants with three or more changes are uncertain.

Sequences and labels used below:
B1: CPEB3 Ribozyme (parent)
chain: UAACAGGGGGCCACAGCAGAAGCGUUCACGUCGCAGCCCCUGUCAGAUUCUGGUGAAUCUGCGAAUUCUGCUGUAUAUCUC

The data set covers variants of B1. Description: self-cleavage, relative activity (ratio to wild type); higher = more cleavage; in vitro, sequencing. The method, boiled down:
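After error-prone PCR and barcoding, CPEB3 ribozyme mutant libraries were transcribed with T7 RNA polymerase at 37°C for 5 hours, then given 15 min with DNase I before an EDTA stop, and they cleaved during both steps. Reverse transcription with template switching preceded Illumina sequencing. Relative activity divides a variant's cleaved/total read fraction by the unmutated ribozyme's. At least 5 reads were required per variant, and three batches were averaged.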
As to A13C U25C G42A U43C U72C U78C, the self-cleavage was 0.07.

With A13G A28U C34G G63U, the self-cleavage was 0.08.

Regarding A13G A35G C59G, the self-cleavage was 0.13. Next, C12U G24U G33A U41A A45U: 0.05; A13G A28G C40A A45U U67C: 0.03; A13G C39U U58C: 0.41.

As to A13G U25A C40U A65G U67C U72C, the self-cleavage is 0.06. Consider A13C A15G C40A U41A U54C A64G, for which the self-cleavage came to 0.07. Then A13G A47G U78C U80C, with 0.

Turning to A13C G33U A35U A64G U72A A75U, the self-cleavage is 0.05. Regarding A13G U26A U31C U41A U51A U80C, the self-cleavage stood at 0.1. Next, A13G A15G A28G A35U A75G: 0.05; A13G A35G U54C A56G U60A U78C: 0.08. Turning to C12U G63C A65U U69A, the self-cleavage stood at 0.36. For the variant C12U U43C C59A U76C, the self-cleavage came to 0.09. For A13G A20G A45G U67G, the self-cleavage stood at 0.41. In the case of A13G A18U A21G G30A, the self-cleavage stood at 0.07. For the variant A13G A20G C32G, the self-cleavage was determined as 0.35. Next, A13G A35G U41A U60A G63A U72C U78C: 0.05; A13C A21G U78C: 0.6; A13G A18C C29U A35G U67C U72C U74A: 0.03. Regarding C12U U26C U72C, the self-cleavage stood at 0.84. Next, A13G A45G U72C: 0.54; A13G A20G U26A U31C A35U U74A U78C: 0.08.

Take A13G C32U G33A A47U U69A: the self-cleavage is 0.05. On to A13G A21G U26G C29U A57U U67C, for which the self-cleavage stood at 0.03. As for A13G A15G U41C, the self-cleavage was determined as 0.11. In the case of A13G A18U C37A U49C U72C U80C, the self-cleavage was found to be 0.06. Turning to A13G U25C A35G A56G, the self-cleavage came out at 0.12. Turning to C12U U31A C40U, the self-cleavage is 0.46.

Regarding A13G U26C G30A U41C U54C G73A, the self-cleavage amounted to 0.06. For the variant C12U G19U U51A U72A, the self-cleavage came out at 0.19. Next, A13G A15G A20G U43C U54A U76C A77G: 0; A13G A18U C34G A64U: 0.17; A13C A21G U60C: 0.33. In the case of A13G U31C U41A, the self-cleavage is 0.17. A13G A15U U49C: the self-cleavage was 0.05. Then A13G A15G A21G A45G U48C U72G U78G, with 0.24; and A13G A18G U26C C29U A45G U49C U80A, with 0.13; and A13G A21G U58C U69A U72C, with 0.2. In the case of A13G A64U A77G, the self-cleavage was 0.44. With A13G U25A U41A A56G U66C U67C, the self-cleavage worked out at 0.07. Take C12U C27A U49C U51C A64C: the self-cleavage worked out at 0.05. With A13G A45G A65G, the self-cleavage worked out at 0.32. Then A13G C34G U51C A57G, with 0.09; and A13G G30C C44A U58C, with 0.08.

For the variant A13G A45C A75U, the self-cleavage was found to be 0.47. In the case of A13G U25C U72G, the self-cleavage is 0.32.

Turning to A13G A28G C37G C59A, the self-cleavage is 0.15. Then C12U C14U G30C A35U G63C, with 0.17.

In the case of A13C G55A U80C, the self-cleavage is 1.1. Take A13G C14A U43C U48C U69C: the self-cleavage came to 0.06. As for A13G A28G U43C U58C U72A U80C, the self-cleavage came out at 0.15.

A13G U41A A45U A57G U69C U78C: the self-cleavage came out at 0.11. For the variant A13G A20U U69C, the self-cleavage was found to be 0.16. Then A13G A20G U31C U41A U80C, with 0.11; and A13G A35G U69A, with 0.47; and A13G A21G U43C C68U U76C, with 0.19. A13G A28U A45G A56U: the self-cleavage worked out at 0.13. A13C G52A U54C C62A: the self-cleavage is 0.21. A13C A57G U66C U69C: the self-cleavage worked out at 0.12. For the variant A13G A21U G22U C37A U51A, the self-cleavage worked out at 0.14. Then C12U U41A U51C U69C, with 0.06; and A13G U26C U66C U69A, with 0.08. Then A13G C40A U54C, with 0.22; and A13C A15G A20G U54C, with 0.73.

Consider A13G C17U U26C A45G G52C A64G, for which the self-cleavage was 0.22. Then A13G A56G U69G, with 0.44; and A13G A18U A57U U60C, with 0.13. For the variant A13G A20G U43A, the self-cleavage was 0.59. As to A13G A18G A21U U26A U49C U67A U78C, the self-cleavage is 0.16. Then A13G A15U A56U U58G G63A U80C, with 0.06; and A13G U25C G46A, with 0.21. Next, A13G U25G A56G U60A A64U U74C: 0.1.

In the case of A13G U31C U72G, the self-cleavage is 0.17. Next, A13G A18G U48C U49C A64G U66C A75U: 0.13; A13C A18G U43A U80C: 0.92. Then A13G A20G U54G U60C C79U U80C, with 0.14; and A13G C34U A56G, with 0.2; and A13G C39U U43G, with 0.26. Then A13G A18G A28U U72C, with 0.14; and A13G U31C C44U U66C, with 0.11; and A13G A18U A56G A64U, with 0.15. Turning to A13G U26A G52C U67A, the self-cleavage was found to be 0.29. Next, A13G U26A C29U U60C: 0.06; A13G A35G U49A U51A A64U U76C: 0.13; A13G U26A G61A U69A: 0.08. Next, A13G A57G A64G: 0.44; A13G A21U A35G: 0.34. Then A13G C27G U76C, with 0.2; and A13G A20G C34U A47G, with 0.24.

As for A13C A18G U51C A57G, the self-cleavage stood at 0.17.

For the variant A13G U26A C39G U60A U78C, the self-cleavage is 0. Next, A13C A28G U78C: 0.68.

With A13G U25C U41C A45U U80A, the self-cleavage is 0.04.

As to A13G A47U U67C, the self-cleavage stood at 0.15. Next, C12U U26C U41C A47G A64G: 0.35; C12U U41A A65G: 0.11; A13C U43C A65G: 0.12. Next, A13G U25A U26C C32U A56U U60A U72C: 0.13; A13C U25C A45G U54G A65G U66C U76C: 0.06. As to A13G C37A U41C A56U A57G U78C U80C, the self-cleavage was found to be 0.1. On to A13G A15U A35G A56U U72A, for which the self-cleavage is 0.24. Next, A13G A20G U26A U41C U48A U49C: 0.04; C12U C23U U43A U54C A64G: 0.24. Then C12U C50U U67G U69C, with 0.24. A13G U31A U41C A45G U58C U72C U76C: the self-cleavage turned out to be 0.06. For the variant A13G A28U U51A A65G U78C, the self-cleavage was 0.11.

A13G U25A U60A U78C: the self-cleavage turned out to be 0.42. As for A13G A20G C38U, the self-cleavage was 0.37. Turning to A13G C29U U31C C38A U43C A64G, the self-cleavage worked out at 0.07. Then A13C A20G U43A U72A, with 0.37; and A13G A18G C38U U43C U80C, with 0.27. As to A13C C39G A45U, the self-cleavage turned out to be 0.2.

As to A13G U25G U54A A56G U58C, the self-cleavage turned out to be 0.07.

In the case of A13G G16A A20G U43C, the self-cleavage was 0.27. Then A13G A15U U31A A35U, with 0.08.

Consider A13G A20G U41C A65G, for which the self-cleavage turned out to be 0.28. Then A13G A35G U41A U67C, with 0.07; and A13G A15G A35U U41A U80C, with 0.29. Next, A13C A47G U60C A65U U72A: 0.12; A13G G36A C68G A75G U78C: 0.03; A13G G24A A35G: 0.11. A13G C40A A45G U48G A56G A65G: the self-cleavage came to 0.1. Next, A13G A47G U54C U58A U67C: 0.05; A13G A21G A28G A45U C68U A75U: 0.44. Then C12U U41C U69C U72C, with 0.58; and A13G A21G U60A, with 0.17.

With A13G A18U U31C G55U U58G, the self-cleavage was 0.03. Next, A13C A56G A57U: 0.12; A13G A20G A47G U54C: 0.39; A13G A20G U26C U41A: 0.59.

Consider A13G A56G G61A, for which the self-cleavage was found to be 0.18. Next, A13G A15U U51C: 0.37. As to A13G U25C U31A C37U G70C U78C, the self-cleavage was 0.14. As to A13G A28G A45U C62U, the self-cleavage turned out to be 0.08. Take A13G A28C A64U: the self-cleavage turned out to be 0.07. Consider C12U U26C A47G, for which the self-cleavage turned out to be 0.69. Consider A13G G53A A65U, for which the self-cleavage was 0.17. Then A13G A28G U60A, with 0.18.

For the variant A13G A28G U60C, the self-cleavage was 0.19. With A13G C40U A45G U67A U72A, the self-cleavage turned out to be 0.13. Then C12U U43A A45G A47G U58A U67C U72C, with 0.1; and A13G A18G A21G G24A A57G A65G, with 0.22; and C12U U26C A56G U60C U67A U72A, with 0.15. Next, A13G A20G U43A A56G U66C U69G: 0.2.

Turning to A13G A20G U54C A57G U69C, the self-cleavage was determined as 0.22. Then A13G A64G U69A, with 0.11; and A13G A18U C29A U48C, with 0.05.

Turning to A13G A35G U51C G52C U60C A65G, the self-cleavage worked out at 0.14. As for A13G C14A A45G U54C U74C, the self-cleavage amounted to 1.08. As for A13G A15G U26A U31A U51A, the self-cleavage came to 0.33. In the case of A13G A15U A35G U43C, the self-cleavage was determined as 0.12. Then A13C A21G U25C G42A U43C U72A, with 0.06; and A13G A21G G52C G63A U67A, with 0.2; and A13G A15G U51G A57U U72C, with 0.5. Next, A13G A15G U26A U69A: 0.04. Then A13G A18U A20G U26C U58A, with 0.46; and A13G A20G U26C U72C, with 0.47; and A13G A18U U41A A47G A64U U69A, with 0.05. On to A13C C17U U25C U54C A65G U66A U80C, for which the self-cleavage stood at 0.06. As to A13G U25C U49A U58C, the self-cleavage amounted to 0.25.

As for A13G U26A A28G A35U U67C, the self-cleavage is 0.16. On to A13C U26A A28G, for which the self-cleavage was determined as 0.58.

On to C12U U26C A45G U60C U72C, for which the self-cleavage stood at 0.89. A13G G33U A65C A77G: the self-cleavage came to 0.11. Then A13G C14U A18G U41C A56G A57G U66C, with 0.04.
